Our source for the IC50 values is US11618753B2 (priority 2018, dated 2023).

In the assay the test system is MLKL phosphorylation, HT29-L23 human colorectal adenocarcinoma cells. Put plainly: cells. The conditions noted are these: read-out: pMLKL HCS Cell Assay (IC50, uM).
For orientation: IC50 means the midpoint of a concentration-inhibition curve. With `COc1ncc(-c2cc(C(F)(F)F)c3c(N)ncnn23)cc1C(=O)Nc1cnn(CC(C)(O)C(F)(F)F)c1` (centres unmarked) [Example 1788, 5-(4-amino-5-(trifluoromethyl)pyrrolo[2,1-f][1,2,4]triazin-7-yl)-2-methoxy-N-(1-(3,3,3-trifluoro-2-hydroxy-2-methylpropyl)-1H-pyrazol-4-yl)nicotinamide], the IC50 was determined as 0.131 µM.

As to `COc1ncc(-c2cc(C(F)(F)F)c3c(N)ncnn23)cc1C(=O)N[C@@H]1CN(C(=O)C2(C)COC2)C[C@@H]1F` [Example 329, 5-[4-amino-5-(trifluoromethyl)pyrrolo[2,1-f][1,2,4]triazin-7-yl]-N-[(3R,4S)-4-fluoro-1-(3-methyloxetane-3-carbonyl)pyrrolidin-3-yl]-2-methoxypyridine-3-carboxamide], the IC50 was 0.194 µM. Under `COc1ncc(-c2cc(CN3CCC(F)(F)CC3)c3c(N)ncnn23)cc1C(=O)N[C@@H]1CN(C(=O)[C@H]2CC2(F)F)C[C@@H]1F` [Example 1560, 5-{4-amino-5-[(4,4-difluoropiperidin-1-yl)methyl]pyrrolo[2,1-f][1,2,4]triazin-7-yl}-N-[(3R,4S)-1-[(1R)-2,2-difluorocyclopropanecarbonyl]-4-fluoropyrrolidin-3-yl]-2-methoxypyridine-3-carboxamide] stands 0.00093 µM. `Nc1ncnn2c(-c3cccc(C(=O)N[C@@H]4CN(C(=O)c5ccc(F)cc5)C[C@@H]4F)c3F)cc(C(F)(F)F)c12` [Example 766, 3-[4-amino-5-(trifluoromethyl)pyrrolo[2,1-f][1,2,4]triazin-7-yl]-2-fluoro-N-[(3R,4S)-4-fluoro-1-(4-fluorobenzoyl)pyrrolidin-3-yl]benzamide]: the IC50 came to 0.076 µM. The figure for `CC(C)(F)C(=O)N1C[C@H](F)[C@H](NC(=O)c2cc(-c3cc(C(F)(F)F)c4c(N)ncnn34)ccc2Cl)C1` [Example 933, 5-[4-amino-5-(trifluoromethyl)pyrrolo[2,1-f][1,2,4]triazin-7-yl]-2-chloro-N-[(3R,4S)-4-fluoro-1-(2-fluoro-2-methylpropanoyl)pyrrolidin-3-yl]benzamide] is 0.011 µM. Under `CCC(O)(C(=O)N1C[C@H](F)[C@H](NC(=O)c2cc(-c3cc(C(F)(F)F)c4c(N)ncnn34)c(F)cc2C)C1)C(F)(F)F` (stereo partly drawn) [Example 857, 5-[4-amino-5-(trifluoromethyl)pyrrolo[2,1-f][1,2,4]triazin-7-yl]-4-fluoro-N-[(3R,4S)-4-fluoro-1-[2-hydroxy-2-(trifluoromethyl)butanoyl]pyrrolidin-3-yl]-2-methylbenzamide] stands 0.0063 µM; under `Nc1ncnn2c(-c3ccc(CF)c(C(=O)N[C@@H]4CN(C(=O)C5CC5(F)F)C[C@@H]4F)c3)cc(C(F)(F)F)c12` (stereo partly drawn) [Example 914, 5-[4-amino-5-(trifluoromethyl)pyrrolo[2,1-f][1,2,4]triazin-7-yl]-N-[(3R,4S)-1-(2,2-difluorocyclopropanecarbonyl)-4-fluoropyrrolidin-3-yl]-2-(fluoromethyl)benzamide], 0.0095 µM; under `Cc1ncc(-c2cc(C(F)(F)F)c3c(N)ncnn23)cc1C(=O)NCCN1CCOCC1c1ccccc1` (centres unmarked) [Example 1721, 5-(4-amino-5-(trifluoromethyl)pyrrolo[2,1-f][1,2,4]triazin-7-yl)-2-methyl-N-(2-(3-phenylmorpholino)ethyl)nicotinamide], 0.042 µM. The figure for `COc1ncc(-c2cc(C(F)(F)F)c3c(N)ncnn23)cc1C(=O)NC1CN(C2CCCC2)CC1F` (racemic) [Example 199, 5-[4-amino-5-(trifluoromethyl)pyrrolo[2,1-f][1,2,4]triazin-7-yl]-N-(1-cyclopentyl-4-fluoropyrrolidin-3-yl)-2-methoxypyridine-3-carboxamide] is 0.054 µM; for `COc1ncc(-c2cc(C(F)(F)F)c3c(N)ncnn23)cc1C(=O)NCCC(=O)c1ccc(Cl)cc1` [Example 148, 5-[4-amino-5-(trifluoromethyl)pyrrolo[2,1-f][1,2,4]triazin-7-yl]-N-[3-(4-chlorophenyl)-3-oxopropyl]-2-methoxypyridine-3-carboxamide] it is 0.024 µM; for `COc1ncc(-c2cc(C(F)(F)F)c3c(N)ncnn23)cc1C(=O)N[C@@H]1CN(C(=O)CC(O)(C(F)(F)F)C(F)(F)F)C[C@@H]1F` [Example 1220, 5-[4-amino-5-(trifluoromethyl)pyrrolo[2,1-f][1,2,4]triazin-7-yl]-N-[(3R,4S)-4-fluoro-1-[4,4,4-trifluoro-3-hydroxy-3-(trifluoromethyl)butanoyl]pyrrolidin-3-yl]-2-methoxypyridine-3-carboxamide] it is 0.0023 µM. On to `Cc1c(F)cc(-c2cc(C(F)(F)F)c3c(N)ncnn23)cc1C(=O)N[C@@H]1CN(C(=O)CC(C(F)(F)F)C(F)(F)F)C[C@@H]1F` [Example 1320, 5-[4-amino-5-(trifluoromethyl)pyrrolo-[2,1-f][1,2,4]triazin-7-yl]-3-fluoro-N-[(3R,4S)-4-fluoro-1-[4,4,4-trifluoro-3-(trifluoromethyl)butanoyl]pyrrolidin-3-yl]-2-methylbenzamide], for which the IC50 was determined as 0.0018 µM. Under `COc1ncc(-c2cc(C(F)(F)F)c3c(N)ncnn23)cc1C(=O)N[C@@H]1CN(C(=O)[C@H](O)C(F)(F)F)C[C@@H]1F` [Example 318, 5-[4-amino-5-(trifluoromethyl)pyrrolo[2,1-f][1,2,4]triazin-7-yl]-N-[(3R,4S)-4-fluoro-1-[(2S)-3,3,3-trifluoro-2-hydroxypropanoyl]pyrrolidin-3-yl]-2-methoxy-pyridine-3-carboxamide] stands 0.124 µM.

Take `COc1ncc(-c2cc(C(F)(F)F)c3c(N)ncnn23)cc1C(=O)N[C@@H]1CN(C(=O)O[C@@H](CO)CC2CC2)C[C@@H]1F` [Example 1452, (2R)-1-cyclopropyl-3-hydroxypropan-2-yl (3R,4S)-3-{5-[4-amino-5-(trifluoromethyl)pyrrolo[2,1-f][1,2,4]triazin-7-yl]-2-methoxypyridine-3-amido}-4-fluoropyrrolidine-1-carboxylate]: the IC50 was found to be 0.085 µM.

As for `COc1ncc(-c2cc(C(F)(F)F)c3c(N)ncnn23)cc1C(=O)NC1CN(C(=O)CC(O)(C(F)(F)F)C(F)(F)F)CCC1F` (centres unmarked) [Example 1661, 5-[4-amino-5-(trifluoromethyl)pyrrolo[2,1-f][1,2,4]triazin-7-yl]-N-{4-fluoro-1-[4,4,4-trifluoro-3-hydroxy-3-(trifluoromethyl)butanoyl]piperidin-3-yl}-2-methoxypyridine-3-carboxamide], the half-maximal inhibitory concentration (IC50) stood at 0.031 µM. In the case of `COc1ncc(-c2cc(C(F)(F)F)c3c(N)ncnn23)cc1C(=O)N[C@@H]1CN(C(=O)NC2CCCC2)C[C@@H]1F` [Example 1837, 5-(4-amino-5-(trifluoromethyl)pyrrolo[2,1-f][1,2,4]triazin-7-yl)-N-((3R,4S)-1-(cyclopentylcarbamoyl)-4-fluoropyrrolidin-3-yl)-2-methoxynicotinamide], the IC50 was 0.13 µM.

Turning to `COc1ncc(-c2cc(C(F)(F)F)c3c(N)ncnn23)cc1C(=O)N[C@@H]1CN(C(=O)OC2CCCCC2)C[C@@H]1F` [Example 1442, cyclohexyl (3R,4S)-3-{5-[4-amino-5-(trifluoromethyl)pyrrolo[2,1-f][1,2,4]triazin-7-yl]-2-methoxypyridine-3-amido}-4-fluoropyrrolidine-1-carboxylate], the IC50 turned out to be 0.016 µM.
